Test results reported in US20260092110A1 (Kyowa Kirin, published 2026).

Legend:
[1] = molecular target: extracellular domain protein of human MOG to which FLAG-Fc is added at the C-terminus (hMOG-FLAG-Fc) (human); test: phage ELISA
[2] = molecular target: T1, human MOG (hMOG) expressed on HEK293, Expi293F or L929 cells (human, UniProt Q16653 30-247); test: phage clone on hMOG/Expi293F cells
T1 construct: also called hMOG/HEK293; hMOG/HEK293F
T1 chain: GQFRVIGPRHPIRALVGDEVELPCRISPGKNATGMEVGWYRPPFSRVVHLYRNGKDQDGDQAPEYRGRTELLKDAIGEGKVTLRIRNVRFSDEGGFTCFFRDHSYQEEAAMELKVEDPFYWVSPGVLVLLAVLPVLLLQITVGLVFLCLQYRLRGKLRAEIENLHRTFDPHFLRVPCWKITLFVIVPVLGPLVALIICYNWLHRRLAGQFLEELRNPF

[3] = molecular target: extracellular domain protein of human MOG to which GST is added at the C-terminus (hMOG-GST) (human); test: SPR, antibody captured, hMOG-GST analyte
Protocol: The antibodies were immobilized on CM5 sensor chips using a Human antibody Capture kit, and the binding abilities were evaluated using rMOG-GST produced in Example 4 as an analyte. The obtained sensorgrams were analyzed with BIA evaluation software, and the dissociation constants (KD values) were thus calculated.
The results of evaluation of the affinities to human MOG are shown in Table 14, and the results of evaluation of the affinities to mouse MOG are shown in Table 15.

B1: MOG428 (scFv phage clone similar to MOG301 antibody) (scFv)
scFv: EVQLVQSGAEVKKPGASVKVSCKASGYSFNSYGINWVRQAPGQGLEWMGWISAYTGKTSYAQKVQGRVTMTTDRSTSTAYMELRSLRSDDTAMYYCAREYDILTGYSDAFDTWGQGTMVTVSSGGGGSGGRASGGGGS[about 100 residues omitted]
binding result [1]: binds
binding result [2]: binds

B2: MOG313 (scFv phage clone similar to MOG303 antibody) (scFv)
scFv: [about 100 residues omitted]AYYDILTGSLFDSWGQGTLVTVSSGGGGSGGRASGGGGSDIVMTQSPSSLSASVGDRVTITCRASQGISSALAWYQQKPGKAPKLLIYDASSLESGVPSRFSGSGSGTDFTLTISSLQPEDFATYYCQQFNSYPLTFGGGTKVEIK
binding result [1]: binds
binding result [2]: binds

B3: MOG319 (scFv phage clone similar to MOG310 antibody) (scFv)
scFv: QVQLVQSGAEVKKPGSSVKVSCKASGGTFSRYAISWVRQAPGQGLEWMGGIIPMFSTANYAQKFQGRVTITADESTSTAYMELSSLRSDDTAVYYCARDWAVAGMGFNYWGQGTLVTVSSGGGGSGGRASGGGGS[about 100 residues omitted]
binding result [1]: binds
binding result [2]: binds

B4: MOG320 (scFv phage clone similar to MOG310 antibody) (scFv)
scFv: QVQLVQSGAEVKKPGSSVKVSCKASGGTFSRYAINWVRQAPGQGLEWMGGIIPMFSTVNYAQKFQGRVTITADESTSTAYMELSSLRSEDTAVYYCARDWAVAGMGFDYWGQGTLVTVSSGGGGSGGRASGGGGS[about 100 residues omitted]FGPGTKVDIK
binding result [1]: binds
binding result [2]: binds

B5: MOG359 (scFv phage clone similar to MOG310 antibody) (scFv)
scFv: EVQLVQSGAEVKKPGSSVKVSCKASGGTFSRYAISWVRQAPGQGLEWMGGIIPMFNTANYAQKFQGRVTITADESTSTAYMELSSLRSEDTAVYYCARDWAVAGMGFNYWGQGTLVTVSSGGGGSGGRASGGGGS[about 100 residues omitted]
binding result [1]: binds
binding result [2]: binds

B6: MOG478 (scFv phage clone similar to MOG310 antibody) (scFv)
scFv: EVQLVQSGAEVKKPGSSVKVSCKASGGTFSRYAISWVRQAPGQGLEWMGGIIPMFATANYAQKFQARVTITADETTSTAYMELSSLRSEDTGVYYCARDWAVAAMGFAHWGQGTLVTVSSGGGGSGGRASGGGGS[about 100 residues omitted]
binding result [1]: binds
binding result [2]: binds

B7: MOG301 scFv-hG4PE(R409K) antibody (Fc fusion)
scFv-Fc: QVQLVQSGAEVKKPGASVKVSCKASGYSFTSYGINWVRQAPGQGLEWMGWISAYNGYTNYAQKLQGRVTMTRDTSTRTAYMELRSLRSDDTAVYYCAREYDILTGYSDAFDIWGQGTLVTVSSGGGGSGGRASGGGGS[about 350 residues with a human IgG4 Fc omitted]
notes: scFv-Fc
Kd [3]: 0.18 nM
koff [3]: 0.00018 s⁻¹
kon [3]: 1.1e+06 M⁻¹ s⁻¹

B8: MOG303 scFv-hG4PE(R409K) antibody (Fc fusion)
scFv-Fc: [about 100 residues omitted]GGYDILTGYFFDYWGQGTTVTVSSGGGGSGGRASGGGGSAIQMTQSPSSLSASVGDRVTITCRASQGISSALAWYQQKPGKAPKLLIYDASSLESGVPSRFSGSGSGTDFTLTISSLQPEDFATYYCQQFNSYPFTFGPGTRLEIK[human IgG4 Fc with S228P L235E R409K (EU numbers) omitted]
notes: scFv-Fc
Kd [3]: 0.17 nM
koff [3]: 0.00016 s⁻¹
kon [3]: 910000 M⁻¹ s⁻¹

B9: MOG329 scFv-hG4PE(R409K) antibody (Fc fusion)
chain: QVQLVESGGGLVQPGGSLRLSCAASGFAFRNYAMNWVRQAPGKGLEWVSAISGSGGSTYYADSVKGRFTISRDNSKNTLYLQMNSLRAEDTAVYYCARDYGGISPFDYWGQGTLVTVSSGGGGSGGRASGGGGSDIQLTQSPSSLSASVGDRVTITCRASQGISSALAWYQQKPGKAPKLLIYDASSLESGVPSRFSGSGSGTDFTLTISSLQPEDFATYYCQQFNSYPHTFGQGTKVDIK[human IgG4 Fc with S228P L235E R409K (EU numbers) omitted]
notes: scFv-Fc
Kd [3]: 0.13 nM
koff [3]: 0.00021 s⁻¹
kon [3]: 1.6e+06 M⁻¹ s⁻¹

B10: MOG446 scFv-hG4PE(R409K) antibody (Fc fusion)
chain: QVQLVESGGGVVRPGGSLRLSCAASGFTFDDYGMSWVRQAPGKGLEWVSNINWNGDSTGYVDSVKGRFTISRDNAKNSLYLQMNSLRAEDTALYYCARARTYYYVSGRYYFDYWGQGTLVTVSSGGGGSGGRASGGGGSDIQMTQSPSSLSASVGDRVTITCRASQGISSALAWYQQKPGKAPKLLIYDASSLESGVPSRFSGSGSGTDFTLTISSLQPEDFATYYCQQFNSYPLTFGGGTKVEIK[human IgG4 Fc with S228P L235E R409K (EU numbers) omitted]
notes: scFv-Fc
Kd [3]: 0.87 nM
koff [3]: 0.00017 s⁻¹
kon [3]: 190000 M⁻¹ s⁻¹

B11: MOG456 scFv-hG4PE(R409K) antibody (Fc fusion)
chain: EVQLVESGGGLVKPGGSLRLSCAASGFTFSSYSMHWVRQAPGKGLEWVSSIGSRSRYIYYADSVKGRFTISRDNAKNSLYLQMNSLRAEDTAVYYCAKGYYDILTGSLFDYWGQGTLVTVSSGGGGSGGRASGGGGSDIVMTQSPSSLSASVGDRVTITCRASQGISSALAWYQQKPGKAPKLLIYDASSLESGVPSRFSGSGSGTDFTLTISSLQPEDFATYYCQQFNSYPWTFGQGTKVEIK[human IgG4 Fc with S228P L235E R409K (EU numbers) omitted]
notes: scFv-Fc
Kd [3]: 0.25 nM
koff [3]: 0.00026 s⁻¹
kon [3]: 1e+06 M⁻¹ s⁻¹
